From paper PMC4944999 (PLoS ONE, 2016)
Read-outs that look alike come from different tables or passages of the source. Where no end group is shown, it is not given here.

Biological target: Aichi H3N2 binding to 2,6'-sialyllactose
Conditions: read-out: IC50, inhibition of virus binding to immobilized 2,6'-sialyllactose

Compound: CC(=O)N[C@H]1[C@H]([C@H](O)[C@H](O)CO)O[C@@](OC[C@H]2O[C@@H](O[C@H]3[C@H](O)[C@@H](O)C(O)O[C@@H]3CO)[C@H](O)[C@@H](O)[C@H]2O)(C(=O)O)C[C@@H]1O (some centres unmarked) [2,6‘-sialyllactose, reference compound]
- IC50: 1790 ± 90 µM

Compound: ARDFYDYDVFYYAMD-NH2 [PeB]
- IC50 (SPR, biotinylated α-2,6’-sialyllactose on neutravidin surface (650 RU), virus preincubated with inhibitor, sigmoidal fit, duplicate experiments): 120 ± 7 µM
